Results on 22 molecules are retold here after ChEMBL document CHEMBL5606460, “ASAP - DENV-2 NS2B-NS3 protease fluorescence single point” (2024).

SMILES strings stand for the structures. Screen size: about 2,000 compounds; about 110 (5.5%) showed an effect of 50% or more. The list shows a part of the results.

This assay deals with Genome polyprotein (dengue virus type 2) (UniProt P29990).
Setting [1] is: Thailand/16681/1984, Concentration 25.0 uM, Number of replicates 1.0.

As usually defined, the inhibition is the drop in the measured response relative to a control, in per cent. `O[C@]1(C(F)(F)F)CC[C@H](CNCc2nnc3ccccn23)CC1`: the inhibition is 4.51% (Thailand/16681/1984, Concentration 49.5 uM, Number of replicates 2.0, Standard deviation 2.244095461971029 %); 4.61% (Thailand/16681/1984, Concentration 99.01 uM, Number of replicates 2.0, Standard deviation 1.4092400656614155 %); 1.75% (Thailand/16681/1984, Concentration 198.0 uM, Number of replicates 2.0, Standard deviation 2.783814769891106 %).

Take `CC(C)(CO)NC(=O)c1cc(Cl)cc(NC(=O)[C@@H](N)c2cccc(Cl)c2)c1`: the inhibition (Thailand/16681/1984, Concentration 49.5 uM, Number of replicates 2.0, Standard deviation 0.0079840461008127 %) is 0.838%; the inhibition (Thailand/16681/1984, Concentration 99.01 uM, Number of replicates 2.0, Standard deviation 0.8566436311158055 %) was determined as 1.65%; the inhibition (Thailand/16681/1984, Concentration 198.0 uM, Number of replicates 2.0, Standard deviation 1.319249969182289 %) turned out to be 3.6%.

With `O=Cc1ccc(N2CCC(C(=O)NCc3ccc4c(c3)OCO4)CC2)cc1`, the inhibition under setting [1] was found to be 10.6%.

In the case of `Cc1cc(CO)c2cccc(Cc3cccc(NC(=O)[C@@H](N)c4ccsc4)c3)c2n1`, the inhibition is 2.81% (Thailand/16681/1984, Concentration 49.95 uM, Number of replicates 2.0, Standard deviation 0.6161503417647632 %) and 10.5% (Thailand/16681/1984, Concentration 99.9 uM, Number of replicates 2.0, Standard deviation 3.7023066252668286 %).

For the molecule `N#Cc1ccc(NC(=O)C2CCN(c3ccc(C=O)cc3)CC2)c(I)c1`, under setting [1], the inhibition was found to be 13.4%.

Turning to `Cc1cc(CO)c2cccc(Cc3ccccc3C(=O)NCCc3ncc[nH]3)c2n1`, the inhibition by setting is: (Thailand/16681/1984, Concentration 49.95 uM, Number of replicates 2.0, Standard deviation 0.3032711887954129 %) 14.1%; (Thailand/16681/1984, Concentration 99.9 uM, Number of replicates 2.0, Standard deviation 0.18110062477906652 %) 34.2%.

With `Cc1cc(CO)c2cccc(Cc3ccccc3C(=O)N[C@@H](CCC(N)=O)C(=O)O)c2n1`, the inhibition runs as follows: (Thailand/16681/1984, Concentration 49.95 uM, Number of replicates 2.0, Standard deviation 0.9816783263695582 %) 12.6%; (Thailand/16681/1984, Concentration 99.9 uM, Number of replicates 2.0, Standard deviation 0.9155644195718532 %) 39.4%.

Consider `CCn1nnc(CNC(=O)[C@]2(c3ccc(F)cc3)CCCNC2)n1`, for which the inhibition is -5.23% (Thailand/16681/1984, Concentration 49.5 uM, Number of replicates 2.0, Standard deviation 1.1683531247452816 %); -5.26% (Thailand/16681/1984, Concentration 99.01 uM, Number of replicates 2.0, Standard deviation 1.0798737399041796 %); -5.3% (Thailand/16681/1984, Concentration 198.0 uM, Number of replicates 2.0, Standard deviation 1.100128166599363 %).

With `COc1cc(Cc2c(-c3ccc(F)cc3)noc2C)nc(N2CCNCC2)n1`, the inhibition is -0.048% (Thailand/16681/1984, Concentration 49.5 uM, Number of replicates 2.0, Standard deviation 0.4285559202279565 %); 1.07% (Thailand/16681/1984, Concentration 99.01 uM, Number of replicates 2.0, Standard deviation 0.4007548684992308 %); 6.24% (Thailand/16681/1984, Concentration 198.0 uM, Number of replicates 2.0, Standard deviation 0.4757654271085549 %).

In the case of `NCC1(c2ccccn2)CCCC1`, the inhibition was -6.98% (Thailand/16681/1984, Concentration 49.8 uM, Number of replicates 2.0, Standard deviation 1.2603836344545174 %) and -5.92% (Thailand/16681/1984, Concentration 99.5 uM, Number of replicates 2.0, Standard deviation 0.09857237494770278 %).

Consider `COc1cccc2c1OC[C@@H](NC(=O)C1CCN(c3ccc(C=O)cc3)CC1)C2`, for which, under setting [1], the inhibition was 0.719%.

For `N=C(N)NC[C@@H]1CCCN(C(=O)[C@H](Cc2ccc(CN)cc2)NC(=O)c2ccccc2)C1`, the inhibition by setting is: (Thailand/16681/1984, Concentration 49.5 uM, Number of replicates 2.0, Standard deviation 0.13440233809748103 %) -1.91%; (Thailand/16681/1984, Concentration 99.01 uM, Number of replicates 2.0, Standard deviation 0.15262642465934906 %) -0.682%; (Thailand/16681/1984, Concentration 198.0 uM, Number of replicates 2.0, Standard deviation 0.32119894086540085 %) 4.21%.

For the molecule `O=C(O)c1cnn(C2CCN(C(=O)c3ccnc4[nH]cnc34)CC2)c1`, the inhibition reads like this: (Thailand/16681/1984, Concentration 49.5 uM, Number of replicates 2.0, Standard deviation 1.214191700010942 %) -2.48%; (Thailand/16681/1984, Concentration 99.01 uM, Number of replicates 2.0, Standard deviation 1.7130868961137902 %) -2.88%; (Thailand/16681/1984, Concentration 198.0 uM, Number of replicates 2.0, Standard deviation 1.3863533153956358 %) -2.86%.

In the case of `CC(C)(C)C(=O)Nc1cccc(C(=O)O)c1`, the inhibition is -2.02% (Thailand/16681/1984, Concentration 49.5 uM, Number of replicates 2.0, Standard deviation 0.010982962959756854 %); -1.86% (Thailand/16681/1984, Concentration 99.01 uM, Number of replicates 2.0, Standard deviation 1.054356857703926 %); -0.485% (Thailand/16681/1984, Concentration 198.0 uM, Number of replicates 2.0, Standard deviation 0.5997610339591201 %).

Take `CNc1ccc(-c2ccccc2C(=O)Nc2cnn(C)c2)cn1`: the inhibition was -3.97% (Thailand/16681/1984, Concentration 49.5 uM, Number of replicates 2.0, Standard deviation 1.2314105420889765 %); -2.29% (Thailand/16681/1984, Concentration 99.01 uM, Number of replicates 2.0, Standard deviation 1.5090910074055448 %); -1.71% (Thailand/16681/1984, Concentration 198.0 uM, Number of replicates 2.0, Standard deviation 0.6382728010796465 %).

Consider `NC(=O)c1cccc(NC(=O)[C@@H](NC(=O)c2ccc(Oc3ccc(C(F)(F)F)cc3)cc2)c2ccc(OCc3ccccc3)cc2)c1`, for which the inhibition was determined as 6.2% (Thailand/16681/1984, Concentration 49.5 uM, Number of replicates 2.0, Standard deviation 0.7362133947681709 %); 12.7% (Thailand/16681/1984, Concentration 99.01 uM, Number of replicates 2.0, Standard deviation 0.5343411171689955 %); 24.8% (Thailand/16681/1984, Concentration 198.0 uM, Number of replicates 2.0, Standard deviation 1.7800185360663037 %).

In the case of `NCc1cccc(NC(=O)[C@H]2CCCN(C(=O)OCc3ccccc3)C2)c1`, the inhibition was -3% (Thailand/16681/1984, Concentration 49.5 uM, Number of replicates 2.0, Standard deviation 3.575781554229458 %); -2.54% (Thailand/16681/1984, Concentration 99.01 uM, Number of replicates 2.0, Standard deviation 3.242498563986953 %); -2.81% (Thailand/16681/1984, Concentration 198.0 uM, Number of replicates 2.0, Standard deviation 3.6104892521705123 %).

On to `O=Cc1ccc(N2CCC(C(=O)N3CCNC(=O)C34CCCCC4)CC2)cc1`, for which the inhibition under setting [1] stood at 13.7%.

In the case of `O=Cc1ccc(N2CCC(C(=O)NC[C@H](O)c3ccc(O)cc3)CC2)cc1`, the inhibition under setting [1] was determined as 11.3%.

Turning to `O=Cc1ccc(N2CCC(C(=O)Nc3c(Cl)cncc3Cl)CC2)cc1`, the inhibition under setting [1] stood at 12.4%.

Consider `Cc1ccc(CNC(=O)C2CCN(c3ccc(C=O)cc3)CC2)c(F)c1F`, for which, under setting [1], the inhibition turned out to be 5.18%.

Turning to `O=Cc1ccc(N2CCC(C(=O)NCc3coc(-c4ccccc4)n3)CC2)cc1`, the inhibition under setting [1] stood at 6.6%.
